The results in this text go back to the supplement of paper PMC10126150.

Sequences with one replicate were seen in a single cluster, so their values are uncertain.

The test system of this series is ATP. The series can be described thus: switch fluorescence ratio, 500 uM ATP over buffer (Cy3 cluster intensity, sum of 5 cycles each) (fold (ratio)); higher = stronger signal-on switching upon ATP binding; sequences stand for … in TCGTCGGCAGCGTCAGATGTGTATAAGAGACAGTTTTTTTTTTTTTTTTTTTTTTTTT…TC. As to conditions: aptamer strand: ATP DNA aptamer (quencher-CACCTGGGGGAGTATTGCGGAGGAAGG + anchor), 100 nM annealed; ATP concentration: 500 uM; one replicate. An outline of the steps: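 Cy3-labelled switching-strand clusters on a modified Illumina MiSeq flow-cell were annealed to 100 nM quencher-labelled ATP aptamer, imaged in selection buffer, then imaged after 15 min with 500 uM ATP at 22 °C. Five buffer/ATP cycles ran, with NaOH stripping and re-annealing between them. The fluorescence ratio is summed target-cycle over summed buffer-cycle Cy3 intensity per cluster, averaged per switch-domain sequence. Clusters outside 100-1000 RFU were excluded.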
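Note: ATP exposure 15 min at 22 °C before imaging.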

Regarding CACAGGGGC, the switch fluorescence ratio was found to be 1.19.

In the case of ATAAGGCATC, the switch fluorescence ratio was determined as 0.966.

As to TGGTTGATGC, the switch fluorescence ratio was determined as 1.

For the sequence GAAGTGGGGA, the switch fluorescence ratio was 1.03.

In the case of TATACATCCA, the switch fluorescence ratio came out at 1.11.

ATCGAGATAT: the switch fluorescence ratio worked out at 1.06.

As to TGGTTATAGA, the switch fluorescence ratio was determined as 1.

Consider TGAGGTCGC, for which the switch fluorescence ratio came out at 0.97.

With GTAACTGTGT, the switch fluorescence ratio came out at 1.02.

Take TGCGATTAAA: the switch fluorescence ratio stood at 1.02.

Turning to TGGCGCAAAT, the switch fluorescence ratio is 1.18.

Regarding ATCCAGCGGC, the switch fluorescence ratio came to 1.04.

Turning to CACGCACCCC, the switch fluorescence ratio was 1.42.

GGTGTAGGCC: the switch fluorescence ratio came to 1.03.

As to CAACCGACGG, the switch fluorescence ratio was 1.05.

Consider TCTGGAGATG, for which the switch fluorescence ratio was 1.05.

Turning to GACCTCATCG, the switch fluorescence ratio was 1.02.

Consider GCCCTTTGAG, for which the switch fluorescence ratio was determined as 0.982.

In the case of GGCTTGAATT, the switch fluorescence ratio stood at 0.958.

As to CGATTCGTCG, the switch fluorescence ratio amounted to 0.937.

Turning to TTAGATATTA, the switch fluorescence ratio was found to be 0.989.

As to TAAGCCTAAG, the switch fluorescence ratio amounted to 0.992.

Regarding CGGACTTTAC, the switch fluorescence ratio was determined as 1.52.

Turning to GTGCGACGGT, the switch fluorescence ratio was 1.01.

For the sequence TCCAGCGGCA, the switch fluorescence ratio came to 1.07.

As to ATCAGGGAGC, the switch fluorescence ratio worked out at 1.03.

For ACTATAGGAT, the switch fluorescence ratio was determined as 1.02.

AGACTCACA: the switch fluorescence ratio worked out at 1.29.

As to GTGAGGTTAG, the switch fluorescence ratio was 0.962.

In the case of CATTACCTGA, the switch fluorescence ratio was determined as 1.03.

Consider GATTGTAACA, for which the switch fluorescence ratio is 0.992.

On to TATGACACT, for which the switch fluorescence ratio worked out at 1.04.

As for AAAATTCGGA, the switch fluorescence ratio turned out to be 0.97.

Take GTTGGCTTGT: the switch fluorescence ratio amounted to 0.985.

For GTCCTGCCAG, the switch fluorescence ratio turned out to be 1.

Turning to TCAGGCTTGC, the switch fluorescence ratio was 1.03.

As for CAACGCTGCC, the switch fluorescence ratio is 2.01.

In the case of GATTGCTTGT, the switch fluorescence ratio stood at 1.

On to AACGGGGCGG, for which the switch fluorescence ratio was determined as 1.23.

For ACGAGTTATC, the switch fluorescence ratio was determined as 1.02.

As to GGCAAGATTT, the switch fluorescence ratio worked out at 1.02.

As for ACCAGCAGGC, the switch fluorescence ratio is 1.33.

Regarding ATTATGCGCT, the switch fluorescence ratio was found to be 0.987.

Consider GGGTAGGCTC, for which the switch fluorescence ratio was found to be 1.03.

In the case of CAGGGAGACT, the switch fluorescence ratio is 0.98.

As to GAGAAATTAG, the switch fluorescence ratio amounted to 0.997.

Turning to CGCTAGGGGT, the switch fluorescence ratio is 1.08.

Take ACGTTGCACT: the switch fluorescence ratio came to 1.1.

Turning to GGCAATGGCA, the switch fluorescence ratio worked out at 0.991.

For the sequence GGTCGCTGTG, the switch fluorescence ratio is 1.14.

Regarding ATCGTATTGG, the switch fluorescence ratio turned out to be 0.993.

Take TTTACTCGCT: the switch fluorescence ratio is 1.56.

TGGTCGAGTT: the switch fluorescence ratio came out at 1.01.

AGTATCCGT: the switch fluorescence ratio is 0.946.

In the case of CCGTTAGGCT, the switch fluorescence ratio was 1.08.

On to GGACTGGTT, for which the switch fluorescence ratio came to 0.964.

As for TGTTAGCGAT, the switch fluorescence ratio amounted to 1.04.

Regarding TATTATTAAT, the switch fluorescence ratio came out at 0.992.

Regarding AATGTGCGTG, the switch fluorescence ratio was found to be 1.02.

In the case of ACGGCGGCGT, the switch fluorescence ratio was 1.13.

ACGTCAGGGG: the switch fluorescence ratio was 1.27.

With ACCCCCACGA, the switch fluorescence ratio came to 1.43.

Take TGACACGATC: the switch fluorescence ratio was 1.28.

Turning to AGGTTAGAAA, the switch fluorescence ratio was 1.04.

For the sequence ACTTACCTTT, the switch fluorescence ratio stood at 1.13.

AATCGTTCGA: the switch fluorescence ratio came to 1.01.

With CGATCGGTTA, the switch fluorescence ratio came to 1.02.

As to GGTTATTCGT, the switch fluorescence ratio came to 0.991.

For the sequence TTCTCTAACA, the switch fluorescence ratio came out at 1.05.

Take CACTTTCTTA: the switch fluorescence ratio was 0.997.

With ATCTAGATAT, the switch fluorescence ratio stood at 0.962.

On to GCATTTTGTA, for which the switch fluorescence ratio was 0.994.

Consider CTCAGTGATT, for which the switch fluorescence ratio was found to be 1.07.

Consider TGATTCCGCC, for which the switch fluorescence ratio stood at 1.03.

TCGGGAATGT: the switch fluorescence ratio stood at 0.967.

Regarding AGTGTAGTCC, the switch fluorescence ratio was 0.989.

As to GTTACGGTAG, the switch fluorescence ratio was 1.07.

Take AGATGAAGGG: the switch fluorescence ratio was 0.961.

Consider GTCTTAGAAC, for which the switch fluorescence ratio came out at 0.992.

AGGGTGTACA: the switch fluorescence ratio amounted to 0.931.

In the case of TCACTTGCGG, the switch fluorescence ratio turned out to be 0.947.

Turning to TTGCGGGGAT, the switch fluorescence ratio worked out at 0.977.

With GTATCGGGTT, the switch fluorescence ratio turned out to be 0.947.

CTGCTACTGA: the switch fluorescence ratio was determined as 1.07.

CTATATGCGC: the switch fluorescence ratio was found to be 0.969.

Consider TTCGCACTAG, for which the switch fluorescence ratio turned out to be 1.3.

On to TAATAATGAC, for which the switch fluorescence ratio came to 0.994.

Consider GTGTAGGATC, for which the switch fluorescence ratio amounted to 1.01.

TTTCATAAAA: the switch fluorescence ratio was found to be 1.05.

With TTTACATTTC, the switch fluorescence ratio is 1.08.

Turning to ATTGTCAATC, the switch fluorescence ratio amounted to 1.05.

Turning to CGGCAAAGAA, the switch fluorescence ratio turned out to be 1.05.

On to GCTCCTATCG, for which the switch fluorescence ratio came to 1.07.

For CATGGACCAT, the switch fluorescence ratio came out at 1.02.

With AGTGGGCAC, the switch fluorescence ratio is 0.966.

On to CCAAGTATCC, for which the switch fluorescence ratio is 0.995.

On to TATTTATTTC, for which the switch fluorescence ratio was found to be 1.02.

As to GGTCCTTCTT, the switch fluorescence ratio amounted to 1.06.

In the case of AGCGGCAAG, the switch fluorescence ratio was found to be 0.984.

TTTTTTCGCC: the switch fluorescence ratio was 1.11.

As to GTAGCCCCTC, the switch fluorescence ratio worked out at 1.07.

With TGGGACGG, the switch fluorescence ratio was determined as 1.03.

Take TTAACACCTC: the switch fluorescence ratio was determined as 1.05.

As for ACAATGTCCC, the switch fluorescence ratio stood at 1.03.

Turning to TTTACTGACG, the switch fluorescence ratio turned out to be 1.12.

Take GCCACGACCG: the switch fluorescence ratio was determined as 1.13.

With TGAATTTAAC, the switch fluorescence ratio worked out at 1.01.

Take CAGGTTATT: the switch fluorescence ratio was determined as 0.945.

In the case of CCATGGGGCC, the switch fluorescence ratio was found to be 1.02.

In the case of CCGTGAGTGT, the switch fluorescence ratio worked out at 1.1.

As to TGGTTATTGG, the switch fluorescence ratio came out at 1.05.

On to GAGTATCGGA, for which the switch fluorescence ratio stood at 0.949.

On to ATAATGGACG, for which the switch fluorescence ratio is 1.1.

Consider CCAGCCCCGG, for which the switch fluorescence ratio worked out at 1.1.

With AACCGGTTAC, the switch fluorescence ratio came out at 1.05.

For GCCGGGGTAT, the switch fluorescence ratio stood at 1.01.

With CCACTCTTCT, the switch fluorescence ratio was 0.955.

Consider ACCGGGTTAG, for which the switch fluorescence ratio came out at 0.993.

For the sequence CATCTTGGG, the switch fluorescence ratio came out at 1.02.

On to GTCACAGTAT, for which the switch fluorescence ratio amounted to 1.02.
